In the supplement of paper PMC10369915:
This is one part of the list. Rule as the data show it: active = 3.2 or more and inactive = the rest. The signal is at background level for most entries.

Key:
Test in all cases: enrichment score (SH2-bound / input frequency) (ratio); bacterial display of known human phosphotyrosine sites (pTyr-Var adds point mutants) read by sequencing; higher = stronger binding; tyrosines were phosphorylated by kinases first
Conditions in all cases: peptide library: Human pTyr
[1] = molecular target: SHP2 C-SH2 domain E139D
[2] = molecular target: SHP2 C-SH2 domain wild-type
[3] = molecular target: SHP2 N-SH2 domain L43F
[4] = molecular target: SHP2 N-SH2 domain T42A
[5] = molecular target: SHP2 N-SH2 domain T52S
[6] = molecular target: SHP2 N-SH2 domain wild-type

Measured: enrichment score
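Also: displayed peptides selected on beads carrying the immobilized SH2 domain, with library peptides lacking any tyrosine serving as negative controls.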

YISKAEEYFLLKSRS [ACHD_HUMAN_390]
inactive: [1] 1.73 | [2] 1.63 | [3] 1.22 | [4] 1.28 | [5] 1.83 | [6] 1.97

AEIDGRDYHFVSSRE [DLG4_HUMAN_580_YA]
inactive: [1] 0.613 | [2] 0.667 | [3] 0.599 | [4] 0.454 | [5] 0.764 | [6] 1.31

NDLASGLYASVCKRA [DOK3_HUMAN_381]
inactive: [1] 1.39 | [2] 1.03 | [3] 1.03 | [4] 1.2 | [5] 1.36 | [6] 1.18

KFIEAGQYNDNLAGT [DLG2_HUMAN_750_YA]
inactive: [1] 0.609 | [2] 0.429 | [3] 0.641 | [4] 0.395 | [5] 0.601 | [6] 0.828

SWEVIEGYRAQHSQH [DHE3_HUMAN_135]
inactive: [1] 0.666 | [2] 0.63 | [3] 0.61 | [4] 0.656 | [5] 0.706 | [6] 0.75

NEVDGQDYHFVVSRE [DLG3_HUMAN_673]
inactive: [1] 0.547 | [2] 0.54 | [3] 0.802 | [4] 0.724 | [5] 0.588 | [6] 0.804

DLVPRKEYAMVDPED [DOCK4_HUMAN_167]
inactive: [1] 1.33 | [2] 0.87 | [3] 0.968 | [4] 1.09 | [5] 1.38 | [6] 1.28

AISKAEEYFLLKSRS [ACHD_HUMAN_390_YA]
inactive: [1] 0.92 | [2] 0.782 | [3] 1.36 | [4] 0.912 | [5] 0.896 | [6] 0.846

KFIEAGQYNDNLYGT [DLG2_HUMAN_750]
inactive: [1] 0.85 | [2] 0.725 | [3] 0.577 | [4] 0.394 | [5] 0.818 | [6] 0.594

ELKMLDKYSHALAAE [DOC11_HUMAN_248_YA]
inactive: [1] 1.07 | [2] 0.745 | [3] 0.8 | [4] 0.716 | [5] 0.892 | [6] 0.771

KNTADVVYLKVAKPS [DLG4_HUMAN_240_YA]
inactive: [1] 0.814 | [2] 0.866 | [3] 0.65 | [4] 0.793 | [5] 0.768 | [6] 0.658

ANPATDDYAVPPPRS [DOK1_HUMAN_409_YA]
inactive: [1] 0.529 | [2] 0.435 | [3] 0.595 | [4] 0.568 | [5] 0.565 | [6] 0.424

IVHSGLAYTMERSAR [DHE3_HUMAN_512]
inactive: [1] 0.787 | [2] 0.684 | [3] 0.903 | [4] 0.718 | [5] 0.869 | [6] 0.878

VQRKKPLYWDLAEHA [DOK1_HUMAN_337_YA]
inactive: [1] 2.71 | [2] 2.92 | [3] 2.68 | [4] 2.68 | [5] 2.98
active: [6] 3.37

IEDLSGPYIWVPARE [DLG4_HUMAN_715]
inactive: [1] 0.745 | [2] 0.874 | [3] 0.841 | [4] 0.706 | [5] 0.754 | [6] 1.12

ELKMLDKYSHYLAAE [DOC11_HUMAN_248]
inactive: [1] 1.34 | [2] 2.03 | [3] 0.773 | [4] 0.876 | [5] 0.85 | [6] 0.795

KNTSDFVYLKVAKPT [DLG1_HUMAN_399]
inactive: [1] 0.582 | [2] 0.519 | [3] 0.62 | [4] 0.508 | [5] 0.889 | [6] 0.802

METVPQLYDFTETHN [DOCK7_HUMAN_1257]
inactive: [1] 0.518 | [2] 0.451 | [3] 0.684 | [4] 0.513 | [5] 0.684 | [6] 0.79
